The other results are listed elsewhere or left out.
target: no compound (DMSO); test: log2 fold change of degron read counts, EGFP-low vs EGFP+ sorted cells; higher = lower degron-EGFP level without compound (poor expression or instability); conditions: compound: DMSO control; 18 h
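Further: jurkat cells carrying a lentiviral library of mutant zinc finger degrons fused to EGFP plus mCherry, mCherry+ cells FACS sorted, degron abundance counted by next-generation sequencing.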

Sequence	log2 fold change of degron read counts
LMCPICGFVCTQKGNLLRHIKL	0.928
FQCPICGHIFTQKGNLLRHIKL	-0.259
FECSVCGHAFTQKGNLLRHIKL	-1.39
FQCEICGRYFTQKGNLLRHIKL	-1.22
FLCPICGHTFTQKGNLLRHIKL	-1.2
FVCEICGHVFTQKGNLLRHIKL	-1.33
FRCEQCGAMFTQKGNLLRHIKL	-1.64
FECEICGHYFTQKGNLLRHIKL	-1.09
FFCSVCGHPFTQKGNLLRHIKL	0.827
FICPICGHFFTQKGNLLRHIKL	0.574
FNCEICGRLFTQKGNLLRHIKL	-0.777
FYCEVCGAAFTQKGNLLRHIKL	-0.879
FECEICGREFTQKGNLLRHIKL	-2.03
FICNQCGHIFTQKGNLLRHIKL	0.505
FNCDQCGASFTQKGNLLRHIKL	-1.74
FICPVCGAHFTQKGNLLRHIKL	-0.0492
FMCEQCGAEFTQKGNLLRHIKL	-2.99
FVCPICGREFTQKGNLLRHIKL	-1.01
FECEICGHWFTQKGNLLRHIKL	-1.04
LDCEICGFECTQKGNLLRHIKL	-0.25
LRCNQCGFSCTQKGNLLRHIKL	1.05
FQCNQCGRPFTQKGNLLRHIKL	-0.585
FMCPICGATFTQKGNLLRHIKL	-0.124
FLCDQCGAQFTQKGNLLRHIKL	-2.23
FWCDICGAMFTQKGNLLRHIKL	-0.0369

Sequence	log2 fold change of degron read counts
FHCNQCGAWFTQKGNLLRHIKL	0.164
FCCEICGHAFTQKGNLLRHIKL	-2.46
FMCDQCGAYFTQKGNLLRHIKL	-0.689
FMCEICGHIFTQKGNLLRHIKL	-0.455
FLCPICGAQFTQKGNLLRHIKL	-0.584
FDCNQCGHKFTQKGNLLRHIKL	0.287
FMCNQCGHWFTQKGNLLRHIKL	0.616
FSCPICGRQFTQKGNLLRHIKL	-0.179
FHCPICGHTFTQKGNLLRHIKL	-0.147
FSCEICGRPFTQKGNLLRHIKL	-1.19
FECEICGRTFTQKGNLLRHIKL	-2.03
FSCPICGHDFTQKGNLLRHIKL	-0.878
FACEICGHHFTQKGNLLRHIKL	-0.907
FMCEICGRFFTQKGNLLRHIKL	-0.587
LLCNQCGFWCTQKGNLLRHIKL	1.98
FKCEVCGAFFTQKGNLLRHIKL	-1.05
FSCNVCGASFTQKGNLLRHIKL	-0.612
FCCDVCGAFFTQKGNLLRHIKL	-0.229
FICPICGARFTQKGNLLRHIKL	-0.386
FRCEICGAKFTQKGNLLRHIKL	-0.789
FECPQCGADFTQKGNLLRHIKL	-1.83
FTCDQCGANFTQKGNLLRHIKL	-1.88
FFCSVCGHLFTQKGNLLRHIKL	1.04
FDCPVCGAQFTQKGNLLRHIKL	-1.01
FLCSVCGHGFTQKGNLLRHIKL	-1.1

From the supplement of paper PMC12645437, “Orthogonal IMiD-Degron Pairs Induce Selective Protein Degradation in Cells” (ACS Chemical Biology, 2025)
